{"source": "PubChem BioAssay AID1458", "about": "(National Center for Advancing Translational Sciences (NCATS), 2008)", "note": "The whole screen tested about 210,000 compounds, of which about 5,900 (2.8%) were called active. This list was built around the results that the source calls inconclusive (neither active nor inactive); the mix of calls is not that of the screen. Calls follow the shape of the dose curve; as a rule, active = well fitted activation curve with a large enough effect; inconclusive = small, poorly fitted or top-dose-only effect; inactive = no such curve, though single readings can be large or run the other way. Potencies beside an inconclusive call are fits to weak or partial responses and may not hold up. Potency is read from the fitted curve at half-maximal effect; tags tell the direction and shape of the fitted curve.", "data": [{"experiment": "qHTS Assay for Enhancers of SMN2 Splice Variant Expression; also: nearly all actives have a fitted effect of over 55% in size; as to activity change, positive = activation: % of control where 0% means no effect", "conditions": "HEK293 SMN2-luciferase splicing reporter, luminescence, 30-36 h; activity change, positive = activation: at 46.1 µM (top of the series)", "summary_of_the_method": "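qHTS luciferase splicing reporter: luminescence rises when SMN2 exon 7 is included in transfected HEK293 cells. Compound exposure lasted 30-36 h at 37C, with 4.5 mM final sodium butyrate as control, followed by a ONE-Glo read.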", "values": [{"smiles": "COc1ccc(/C=C2/SC(=O)N(CCC(=O)Nc3ccc(S(=O)(=O)Nc4nccs4)cc3)C2=O)cc1", "Potency": "inconclusive: 25.1 µM [activator, single point]"}, {"smiles": "CCN(c1cccc(C)c1)S(=O)(=O)c1ccc2[nH]c(=O)c(=O)[nH]c2c1", "activity change, positive = activation": "inactive: -2.89%"}, {"smiles": "Cc1nc2c3ccccc3nc(NNC(=O)CCC(=O)O)n2n1", "activity change, positive = activation": "inactive: -5.41%"}, {"smiles": "CCNC(=O)c1c(O)c2cccc3c2n(c1=O)CC3", "Potency": "inconclusive: 3.16 µM [activator, single point]"}, {"smiles": "COc1ccc(NS(=O)(=O)c2ccc(N3CCCC3)c(NC(=S)Nc3ccc(SC(F)F)cc3)c2)cc1", "activity change, positive = activation": "inactive: 3.12% [at 1.84 µM]"}, {"smiles": "Cc1cc(C)c(NC(=O)CS(=O)CC(=O)NC2CCCc3ccccc32)c(C)c1", "note": "(centres undefined)", "activity change, positive = activation": "inactive: 2.09%"}, {"smiles": "CC(C)Oc1ccc(/C=N/NC(N)=S)cc1", "Potency": "inconclusive: 35.5 µM [activator, single point]"}, {"smiles": "CCCCOc1ccc(CNC(=O)NS(=O)(=O)c2ccc(OCC)cc2)cc1", "Potency": "inconclusive: 0.891 µM [activator, full curve, poor fit]"}, {"smiles": "NC(=O)c1cc(Cc2ccccc2)sc1NC(=O)c1ccco1", "Potency": "active: 15.8 µM"}, {"smiles": "O=C(Nc1nc2cc3c(cc2s1)OCCO3)c1ccncc1", "Potency": "inconclusive: 4.47 µM [activator, partial curve, poor fit]"}, {"smiles": "O=C(Nc1ccc2oc(-c3ccc4ccccc4c3)nc2c1)c1cccs1", "Potency": "inconclusive: 35.5 µM [activator, single point]"}, {"smiles": "O=C(N/N=C/c1ccc(-c2ccc(S(=O)(=O)Nc3ncccn3)cc2)o1)c1cc2ccccc2cc1O", "Potency": "inconclusive: 17.8 µM [activator, partial curve, poor fit]"}, {"smiles": "C/C(=N\\NC(=O)COc1ccc(C(C)(C)C)cc1)c1ccc(-n2ccnc2)cc1", "Potency": "inconclusive: 35.5 µM [activator, single point]"}, {"smiles": "COC(=O)N1C2=C(c3ccccc3[C@@H]1CC(=O)Nc1ccc3ccc4cccc5ccc1c3c45)[C@@H]1C(=O)N(c3ccccc3)C(=O)[C@@H]1[C@H](C)C2", "activity change, positive = activation": "inactive: -3.51% [at 9.22 µM]"}, {"smiles": "COc1cccc(NC(=O)CCN2CCN(C)CC2)c1", "Potency": "inconclusive: 7.08 µM [activator, full curve]"}, {"smiles": "Fc1ccc(NC(=S)N2N=CCC2c2ccccc2)cc1", "note": "(centres undefined)", "activity change, positive = activation": "inactive: 9.68%"}, {"smiles": "Cc1cc(/C=N/NC(=O)c2ccncc2)c(C)n1-c1ccccc1", "Potency": "inconclusive: 17.8 µM [activator, single point]"}, {"smiles": "Nn1c(Nc2ccccc2)nc2ccccc21", "Potency": "inconclusive: 15.8 µM [activator, single point]"}, {"smiles": "O=C(Nc1ccc2c(c1)OCCO2)c1ccc(Cl)c([N+](=O)[O-])c1", "Potency": "active: 17.8 µM"}, {"smiles": "COCCCNC(=O)c1c(NC(=O)Cc2coc3cc(C)ccc23)sc2c1CCCC2", "Potency": "inconclusive: 35.5 µM [activator, single point]"}, {"smiles": "CC1(C)Cc2c(cnn2-c2ccccc2)-c2c1c1ccccc1n2CC(O)CCl", "note": "(centres undefined)", "activity change, positive = activation": "inactive: -21.4%"}, {"smiles": "O=C1C(Cl)=C(NC2CCCCC2)C(=O)N1c1ccc(Cl)cc1", "Potency": "inconclusive: 31.6 µM [activator, single point]"}, {"smiles": "CCN(CC)S(=O)(=O)c1ccc2oc(C(=O)O)c(C)c2c1", "Potency": "inconclusive: 0.0032 µM [activator, full curve, poor fit]"}, {"smiles": "CNC1=C(Br)C(=O)c2ccncc2C1=O", "activity change, positive = activation": "inactive: -83.2%"}, {"smiles": "CN(C)c1ccc(-c2cc(-n3ccnc3)ncn2)cc1", "Potency": "inconclusive: 28.2 µM [activator, single point]"}, {"smiles": "Cc1ccccc1C(=O)Nc1cccc(NC(=O)c2ccc(C(C)(C)C)cc2)c1", "Potency": "inconclusive: 5.01 µM [activator, single point]"}, {"smiles": "O=C1c2ccccc2CN1CCSC(=S)N1CCOCC1", "Potency": "active: 12.6 µM"}, {"smiles": "CCN(Cc1ccccc1)c1nc2c(S(=O)(=O)c3ccccc3)nnn2c2ccc(Cl)cc12", "activity change, positive = activation": "inactive: -3.57%"}, {"smiles": "O=C(O)Cc1sc(Nc2ccc(Cl)cc2)nc1-c1cccs1", "Potency": "active: 14.1 µM"}, {"smiles": "Cc1cc2oc(C(=O)Nc3ccc(S(=O)(=O)Nc4nccs4)cc3)cc(=O)c2cc1Cl", "Potency": "inconclusive: 0.891 µM [activator, full curve]"}, {"smiles": "Cc1nc(SCC(=O)Nc2ccc3c(c2)OCCO3)nc(C)c1C", "Potency": "inconclusive: 14.1 µM [activator, partial curve]"}, {"smiles": "CC(=O)OCCC(C)CCC=C(C)C", "note": "(centres undefined)", "activity change, positive = activation": "inactive: -2.64%"}, {"smiles": "Cn1c(=O)n(C)c2cc(NS(=O)(=O)c3ccc(Br)s3)ccc21", "Potency": "inconclusive: 10 µM [activator, partial curve, poor fit]"}, {"smiles": "Cc1cc(C(=O)OCC(N)=O)c(C)n1-c1ccccc1", "Potency": "inconclusive: 11.2 µM [activator, single point]"}, {"smiles": "Nc1cc(N)nc(SCc2ccccc2)n1", "Potency": "active: 11.2 µM"}, {"smiles": "Cc1nn(CC(=O)Nc2ccc3c(c2)OCO3)c(C)c1[N+](=O)[O-]", "Potency": "inconclusive: 0.02 µM [activator, full curve, poor fit]"}, {"smiles": "CC1Oc2ccccc2OC1(O)c1ccc2ccccc2n1", "note": "(centres undefined)", "activity change, positive = activation": "inactive: -24.5%"}, {"smiles": "COc1ccc(NS(=O)(=O)c2cc(NC(=O)c3cccs3)ccc2N2CCCC2)cc1", "Potency": "inconclusive: 28.2 µM [activator, single point]"}, {"smiles": "COC(=O)/C=C1\\S/C(=N/NC(=O)c2ccccc2)NC1=O", "Potency": "inconclusive: 4.47 µM [activator, partial curve]"}, {"smiles": "COc1ccc2nc(NC(=O)c3ccc4ncsc4c3)sc2c1", "Potency": "inconclusive: 11.2 µM [activator, partial curve]"}, {"smiles": "COc1cc(CN(C2CCCCC2)S(=O)(=O)c2ccc(S(=O)(=O)N(C)C3CCCCC3)cc2)cc(OC)c1OC", "activity change, positive = activation": "inactive: -24.5%"}, {"smiles": "CO/C([O-])=N/c1c[n+](-c2ccc(C)cc2)no1", "Potency": "inconclusive: 14.1 µM [activator, single point]"}, {"smiles": "CC(C)CC(NC(=O)COc1ccccc1)C(=O)O", "note": "(centres undefined)", "Potency": "inconclusive: 1.41 µM [activator, partial curve, poor fit]"}, {"smiles": "O=C(CSc1ccc2c(c1)OCCO2)NCc1ccccc1", "Potency": "inconclusive: 12.6 µM [activator, single point]"}, {"smiles": "O=C(NCCO)C1(c2ccccc2)CCCC1", "Potency": "inconclusive: 0.0028 µM [activator, full curve, poor fit]"}, {"smiles": "CCOC(=O)c1ccoc1CSCc1ccc(C(=O)OC)o1", "activity change, positive = activation": "inactive: 13.2%"}, {"smiles": "CCCCCCNC(=O)Nc1ccc(S(=O)(=O)Nc2ccc(CCNC[C@H](O)COc3ccc(O)cc3)cc2)cc1", "activity change, positive = activation": "inactive: -1.37%"}, {"smiles": "c1ccc2[nH]c(SCc3cscn3)nc2c1", "Potency": "inconclusive: 15.8 µM [activator, partial curve]"}, {"smiles": "Cc1cc(NC(=O)Nc2ccc3c(ccn3C)c2)sn1", "Potency": "inconclusive: 10 µM [activator, full curve]"}, {"smiles": "COc1ccc(/C=N/NC(=O)COc2cc(C)cc(C)c2)cc1COC(C)=O", "activity change, positive = activation": "inactive: -0.52%"}, {"smiles": "O=C(O)c1cc(-c2cccs2)nc2cc3c(cc12)OCCO3", "Potency": "inconclusive: 20 µM [activator, single point]"}, {"smiles": "CC1CCN(c2ccc(C(=O)NCCc3ccccc3)cn2)CC1", "Potency": "inconclusive: 11.2 µM [activator, single point]"}, {"smiles": "COc1ccc(C(=O)NCC(=O)OCc2ccc(Br)cc2)cc1", "activity change, positive = activation": "inactive: -20.2%"}, {"smiles": "O=C(Nc1nc2ccccc2[nH]1)c1ccc(F)c(S(=O)(=O)N2CCOCC2)c1", "Potency": "inconclusive: 12.6 µM [activator, partial curve]"}, {"smiles": "Cc1sc(NC(=O)c2ccco2)c(CN2CCN(Cc3ccccc3)CC2)c1C", "activity change, positive = activation": "inactive: -39.8%"}, {"smiles": "Brc1cccc(-c2nnc(-c3ccccc3)o2)c1", "Potency": "active: 17.8 µM"}, {"smiles": "Oc1nc(Nc2ccc(Cl)cc2Cl)sc1/C=C1\\C=Nc2ccccc21", "Potency": "active: 3.16 µM"}, {"smiles": "CCN(CC)S(=O)(=O)c1ccc(N2CCOCC2)c(NCC(=O)Nc2ccc(F)cc2)c1", "activity change, positive = activation": "inactive: 7.33%"}, {"smiles": "COc1ccc(-c2nc3cnc(N4CCN(C)CC4)nc3n(CCC#N)c2=O)cc1", "activity change, positive = activation": "inactive: -5.97%"}, {"smiles": "O=c1ccc(S(=O)(=O)N2CCC(Cc3ccccc3)CC2)c[nH]1", "Potency": "inconclusive: 2.24 µM [activator, partial curve, poor fit]"}, {"smiles": "COC(=O)C(NC(C)=O)(Nc1nc2c(s1)CCCC2)C(F)(F)F", "note": "(centres undefined)", "Potency": "inconclusive: 3.55 µM [activator, single point]"}, {"smiles": "O=C(Nc1nc2ccccc2[nH]1)C1CC1", "Potency": "active: 10 µM"}, {"smiles": "Cc1ccc(SCC(=O)NCCN2C(=O)CSC2=O)cc1C", "activity change, positive = activation": "inactive: -6.65%"}, {"smiles": "Cc1ccc(Cc2cn3cc(-c4ccc(F)cc4)nc3s2)cc1", "Potency": "inconclusive: 7.08 µM [activator, full curve, poor fit]"}, {"smiles": "Cc1cccc(-n2ncc3c(NC(C)C)ncnc32)c1", "Potency": "active: 3.55 µM"}, {"smiles": "Cc1ccc(NC(=O)C2C3/C=C\\CCCCC32)cc1", "note": "(centres undefined)", "Potency": "inconclusive: 25.1 µM [activator, single point]"}, {"smiles": "CCCCNC(=S)N/N=C/c1sccc1C", "activity change, positive = activation": "inactive: 25.3%"}, {"smiles": "CCOc1ccc(Br)cc1S(=O)(=O)Nc1cccc(S(=O)(=O)N(C)c2ccccc2)c1", "activity change, positive = activation": "inactive: -6.29%"}, {"smiles": "CCOc1ccc2nc(NC(=O)Nc3ccccc3)sc2c1", "Potency": "active: 11.2 µM"}, {"smiles": "COc1cc2c(cc1OC)C(COc1ccc3c(C)cc(=O)oc3c1)N(C(=O)c1ccccc1C)CC2", "note": "(centres undefined)", "activity change, positive = activation": "inactive: 2.82%"}, {"smiles": "COc1ccc(OCCn2c(NC(=O)c3ccco3)nc3ccccc32)cc1", "activity change, positive = activation": "inactive: -12.3%"}, {"smiles": "Cc1noc(C)c1CSc1nc2sc(C)c(C)c2c(=O)n1-c1ccccc1", "Potency": "inconclusive: 0.01 µM [activator, full curve]"}, {"smiles": "Cc1ccc(-n2c(SCC(=O)NCC3CCCO3)nc3c(c2=O)SCC3)cc1", "note": "(centres undefined)", "Potency": "inconclusive: 5.01 µM [activator, full curve, poor fit]"}, {"smiles": "CCSc1nnc(Nc2ccc(C)cc2)s1", "Potency": "inconclusive: 31.6 µM [activator, single point]"}]}]}
